Tests used:
[1] = biological target: T1, monkey PD-L1 expressed on HEK293A cells (monkey (cynomolgus), UniProt Q9NZQ7 (human entry)); experiment: FACS on HEK293A/monkey PD-L1 cells, serially diluted antibody (protocol of Example 4)
T1 construct: Full-length cDNA expressed stably; also called HEK293A/monkey PD-L1 cells; HEK293A/monkey PD-L1

human PD-L1 (ECD)-his = biological target: T2, human PD-L1 (ECD)-his (human, UniProt Q9NZQ7 fragment); experiment: SPR (BIAcore 8K), human PD-L1 (ECD)-his coupled to CM5 chip, antibody injected, 1:1 Langmuir model
T2 construct: Bought protein; it is not tied to the bought construct by a sentence of its own; also called recombinant human PD-L1(ECD)-his; Cat #:10084-H08H, Sino Biological; not shown: His tag
Experimental: (§1) These antibodies were also tested in SPR assays for their binding affinities to human and monkey PD-L1 with BIAcore™ 8K instrument (GE Life Sciences). Briefly, 100-200 response units (RU) of human PD-L1 (ECD)-his protein (Cat #:10084-H08H, Sino Biological, CN) or monkey PD-L1 (ECD)-his protein (Cat #:90251-008H, Sino Biological, CN) were coupled to CM5 biosensor chips (Cat #:BR-1005-30, GE Life Sciences, US), and the un-reacted groups were blocked with 1M ethanolamine Serially diluted antibodies at concentrations ranging from 0.3 μM to 10 μM were injected into the SPR running buffer (HBS-EP buffer, pH7.4, Cat #:BR-1006-69, GE Life Sciences, US) at 30 μL/minute. The binding affinities were calculated with the RUs of blank controls subtracted. The association rate (kₐ) and dissociation rate (kd) were calculated using the one-to-one Langmuir binding model (BIA Evaluation Software, GE Life Sciences), and the equilibrium dissociation constant KD was calculated as the kd/kₐ ratio.

monkey PD-L1 (ECD)-his = biological target: T3, monkey PD-L1 (ECD)-his (monkey, UniProt Q9NZQ7 fragment (human entry)); experiment: SPR (BIAcore 8K), monkey PD-L1 (ECD)-his coupled to CM5 chip, antibody injected, 1:1 Langmuir model
T3 construct: Bought protein; also called Cat #:90251-C08H, Sino Biological; not shown: His tag
Experimental: as §1

human PD-L1 (ECD)-his, sequence (Q9NZQ7 19-238): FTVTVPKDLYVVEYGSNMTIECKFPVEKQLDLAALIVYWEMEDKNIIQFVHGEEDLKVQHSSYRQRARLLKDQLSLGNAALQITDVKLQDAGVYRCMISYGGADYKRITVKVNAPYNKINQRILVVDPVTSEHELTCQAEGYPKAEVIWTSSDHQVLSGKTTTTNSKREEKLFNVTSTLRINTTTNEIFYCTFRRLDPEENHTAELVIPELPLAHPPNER
monkey PD-L1 (ECD)-his, sequence (Q9NZQ7 other isoform, or with tags, fused parts or gaps): as the sequence (Q9NZQ7 19-238) above, with A33T, A34S, S62N, R68Q, Q82R, F173L, T185A, T192I, H215L counted along it

| Binder | binding result [1] | Kd (human PD-L1 (ECD)-his) | Kd (monkey PD-L1 (ECD)-his) |
| --- | --- | --- | --- |
| 56E5VH3VL3 (antibody, human IgG1, kappa, humanized 56E5 antibody) heavy chain: QVQLQESGPGLVKPSQTLSLTCTVSGGSITSDYWNWIRQHPGNKLEYMGYISYTGSTYYNPSLKSRVTITVDTSKNQFSLKLSSVTTADTAVYYCARYRDWDVRAMDYWGQGTTVTVSSASTKGPSVFPLAPSSKSTSGGTAALGCLVKDYFPEPVTVSWNSGALTSGVHTFPAVLQSSGLYSLSSVVTVPSSSLGTQTYICNVNHKPSNTKVDKKV[human IgG1 Fc with changes not spelt out] light chain: DIVMTQSPDSLAVSLGEKVTMNCKSSQSLLISGNQKNFLTWYQQKPGQPPKLLIYWASTRESGVPDRFSGSGSGTDFTLTISSLQAEDVAVYYCQNDFGFPFTFGQGTKVEIKRTVAAPSVFIFPPSDEQLKSGTASVVCLLNNFYPREAKVQWKVDNALQSGNSQESVTEQDSKDSTYSLSSTLTLSKADYEKHKVYACEVTHQGLSSPVTKSFNRGEC | binds | – | – |
| 56E5VH2VL3 (antibody, human IgG1, kappa, humanized 56E5 antibody) heavy chain: QVQLQESGPGLVKPSQTLSLTCTVSGGSITSDYWNWIRQHPGKGLEYMGYISYTGSTYYNPSLKSRVTITVDTSKNQFSLKLSSVTTADTAVYYCARYRDWDVRAMDYWGQGTTVTVSSASTKGPSVFPLAPSSKSTSGGTAALGCLVKDYFPEPVTVSWNSGALTSGVHTFPAVLQSSGLYSLSSVVTVPSSSLGTQTYICNVNHKPSNTKVDKKV[human IgG1 Fc with changes not spelt out] light chain: DIVMTQSPDSLAVSLGEKVTMNCKSSQSLLISGNQKNFLTWYQQKPGQPPKLLIYWASTRESGVPDRFSGSGSGTDFTLTISSLQAEDVAVYYCQNDFGFPFTFGQGTKVEIKRTVAAPSVFIFPPSDEQLKSGTASVVCLLNNFYPREAKVQWKVDNALQSGNSQESVTEQDSKDSTYSLSSTLTLSKADYEKHKVYACEVTHQGLSSPVTKSFNRGEC | binds | – | – |
| 56E5VH5VL2 (antibody, human IgG1, kappa, humanized 56E5 antibody) heavy chain: QVQLQESGPGLVKPSQTLSLTCTVSGGSITSDYWNWIRQHPGNKLEYMGYISYTGSTYYNPSLKSRISITRDTSKNQFSLKLSSVTTADTAVYYCARYRDWDVRAMDYWGQGTTVTVSSASTKGPSVFPLAPSSKSTSGGTAALGCLVKDYFPEPVTVSWNSGALTSGVHTFPAVLQSSGLYSLSSVVTVPSSSLGTQTYICNVNHKPSNTKVDKKV[human IgG1 Fc with changes not spelt out] light chain: DIVMTQSPDSLAVSLGERATMNCKSSQSLLISGNQKNFLTWYQQKPGQPPKLLIYWASTRESGVPDRFSGSGSGTDFTLTISSLQAEDVAVYYCQNDFGFPFTFGQGTKVEIKRTVAAPSVFIFPPSDEQLKSGTASVVCLLNNFYPREAKVQWKVDNALQSGNSQESVTEQDSKDSTYSLSSTLTLSKADYEKHKVYACEVTHQGLSSPVTKSFNRGEC | binds | – | – |
| 56E5VH4VL2 (antibody, human IgG1, kappa, humanized 56E5 antibody) heavy chain: QVQLQESGPGLVKPSQTLSLTCTVSGGSITSDYWNWIRQHPGNKLEYMGYISYTGSTYYNPSLKSRVTITRDTSKNQFSLKLSSVTTADTAVYYCARYRDWDVRAMDYWGQGTTVTVSSASTKGPSVFPLAPSSKSTSGGTAALGCLVKDYFPEPVTVSWNSGALTSGVHTFPAVLQSSGLYSLSSVVTVPSSSLGTQTYICNVNHKPSNTKVDKKV[human IgG1 Fc with changes not spelt out] light chain: DIVMTQSPDSLAVSLGERATMNCKSSQSLLISGNQKNFLTWYQQKPGQPPKLLIYWASTRESGVPDRFSGSGSGTDFTLTISSLQAEDVAVYYCQNDFGFPFTFGQGTKVEIKRTVAAPSVFIFPPSDEQLKSGTASVVCLLNNFYPREAKVQWKVDNALQSGNSQESVTEQDSKDSTYSLSSTLTLSKADYEKHKVYACEVTHQGLSSPVTKSFNRGEC | binds | – | – |

Next, values leading:

| binding result [1] | Kd (human PD-L1 (ECD)-his) | Kd (monkey PD-L1 (ECD)-his) | Binder |
| --- | --- | --- | --- |
| binds | – | – | 56E5VH3VL2 (antibody, human IgG1, kappa, humanized 56E5 antibody) heavy chain: QVQLQESGPGLVKPSQTLSLTCTVSGGSITSDYWNWIRQHPGNKLEYMGYISYTGSTYYNPSLKSRVTITVDTSKNQFSLKLSSVTTADTAVYYCARYRDWDVRAMDYWGQGTTVTVSSASTKGPSVFPLAPSSKSTSGGTAALGCLVKDYFPEPVTVSWNSGALTSGVHTFPAVLQSSGLYSLSSVVTVPSSSLGTQTYICNVNHKPSNTKVDKKV[human IgG1 Fc with changes not spelt out] light chain: DIVMTQSPDSLAVSLGERATMNCKSSQSLLISGNQKNFLTWYQQKPGQPPKLLIYWASTRESGVPDRFSGSGSGTDFTLTISSLQAEDVAVYYCQNDFGFPFTFGQGTKVEIKRTVAAPSVFIFPPSDEQLKSGTASVVCLLNNFYPREAKVQWKVDNALQSGNSQESVTEQDSKDSTYSLSSTLTLSKADYEKHKVYACEVTHQGLSSPVTKSFNRGEC |
| binds | 0.0308 nM | 0.441 nM | humanized antibody 56E5-VH5VL3 (antibody, human IgG1, kappa, Human IgG1(N297A)/kappa) heavy: QVQLQESGPGLVKPSQTLSLTCTVSGGSITSDYWNWIRQHPGNKLEYMGYISYTGSTYYNPSLKSRISITRDTSKNQFSLKLSSVTTADTAVYYCARYRDWDVRAMDYWGQGTTVTVSSASTKGPSVFPLAPSSKSTSGGTAALGCLVKDYFPEPVTVSWNSGALTSGVHTFPAVLQSSGLYSLSSVVTVPSSSLGTQTYICNVNHKPSNTKVDKKV[human IgG1 Fc with changes not spelt out] light: DIVMTQSPDSLAVSLGEKVTMNCKSSQSLLISGNQKNFLTWYQQKPGQPPKLLIYWASTRESGVPDRFSGSGSGTDFTLTISSLQAEDVAVYYCQNDFGFPFTFGQGTKVEIKRTVAAPSVFIFPPSDEQLKSGTASVVCLLNNFYPREAKVQWKVDNALQSGNSQESVTEQDSKDSTYSLSSTLTLSKADYEKHKVYACEVTHQGLSSPVTKSFNRGEC |
| binds | – | – | 56E5VH2VL2 (antibody, human IgG1, kappa, humanized 56E5 antibody) heavy chain: QVQLQESGPGLVKPSQTLSLTCTVSGGSITSDYWNWIRQHPGKGLEYMGYISYTGSTYYNPSLKSRVTITVDTSKNQFSLKLSSVTTADTAVYYCARYRDWDVRAMDYWGQGTTVTVSSASTKGPSVFPLAPSSKSTSGGTAALGCLVKDYFPEPVTVSWNSGALTSGVHTFPAVLQSSGLYSLSSVVTVPSSSLGTQTYICNVNHKPSNTKVDKKV[human IgG1 Fc with changes not spelt out] light chain: DIVMTQSPDSLAVSLGERATMNCKSSQSLLISGNQKNFLTWYQQKPGQPPKLLIYWASTRESGVPDRFSGSGSGTDFTLTISSLQAEDVAVYYCQNDFGFPFTFGQGTKVEIKRTVAAPSVFIFPPSDEQLKSGTASVVCLLNNFYPREAKVQWKVDNALQSGNSQESVTEQDSKDSTYSLSSTLTLSKADYEKHKVYACEVTHQGLSSPVTKSFNRGEC |
| binds | – | – | 56E5VH4VL3 (antibody, human IgG1, kappa, humanized 56E5 antibody) heavy chain: QVQLQESGPGLVKPSQTLSLTCTVSGGSITSDYWNWIRQHPGNKLEYMGYISYTGSTYYNPSLKSRVTITRDTSKNQFSLKLSSVTTADTAVYYCARYRDWDVRAMDYWGQGTTVTVSSASTKGPSVFPLAPSSKSTSGGTAALGCLVKDYFPEPVTVSWNSGALTSGVHTFPAVLQSSGLYSLSSVVTVPSSSLGTQTYICNVNHKPSNTKVDKKV[human IgG1 Fc with changes not spelt out] light chain: DIVMTQSPDSLAVSLGEKVTMNCKSSQSLLISGNQKNFLTWYQQKPGQPPKLLIYWASTRESGVPDRFSGSGSGTDFTLTISSLQAEDVAVYYCQNDFGFPFTFGQGTKVEIKRTVAAPSVFIFPPSDEQLKSGTASVVCLLNNFYPREAKVQWKVDNALQSGNSQESVTEQDSKDSTYSLSSTLTLSKADYEKHKVYACEVTHQGLSSPVTKSFNRGEC |

— patent publication US20220298244A1 (BEIJING MABWORKS BIOTECH, published 2022)
